Some of the results follow.
B1: chr9:86945015:86945116:-|3pUTR|ENSG00000180447|msi1|FALSE|unique (ssRNA)
RNA: GGGAGUUCUACAGUCCGACGAUCUUGGUUUUGGAUAAGUUUGAGCCCUUGACCUUAAUUUCAUUGCUACCACUCUGAUCUCUUAGCACAUUUCUUAGGAUUAAGGGUCCAAAAAUGCUGAUCUAAGGGGUUGCCAUGGUGUUGCAACAGAGGAUUGAGCAUCA
B2: chr12:54350855:54350965:+|3pUTR|ENSG00000111481|msi1|FALSE|unique (ssRNA)
RNA: GGGAGUUCUACAGUCCGACGAUCUUGCCCUGACAUUUUUGUAAAUUCUGUGCCCUUUGCUGUAGCUACACUUCAGAUUAAAGUAGGAGAAAGAAUGUGCUGAGUGUUUUCCUCCCUUUGCCUCUACCUGGCCCUCAUCCCAACCAACAGAGGAUUGAGCAUCA
B3: chr14:59746188:59746291:-|CDS|ENSG00000139970|unk|FALSE|unique (ssRNA)
RNA: GGGAGUUCUACAGUCCGACGAUCCUGGGUACACCCGGCCCCUCCUUACCAGAUGUGCCUGGGAUAGAGUCUCGUGGCUUAUUUAGUUCUGAUUCUGGAAUAGAGAUGACUCCUGCAGAGUCCACGGAAGUGAACAAGAUCUUACAACAGAGGAUUGAGCAUCA
B4: chr1:213005240:213005351:-|CDS|ENSG00000174606|unk|total|mutant (ssRNA)
RNA: GGGAGUUCUACAGUCCGACGAUCGAACCCAGUGGAAUUCUUCCGCCCUGAUAUUUCUCUGUUGGACAGAGACAAUGUUGGAUCCGUUUUACUCUUACAGCCCAAAAUUCCAUAUGCUGCCUGCCCUGCAAUCUGCGCCGCAAACAACAGAGGAUUGAGCAUCA
B5: ENSG00000124766:be:win_2751|3pUTR|ENSG00000124766|bound_else_gene|NA|bound_elsewhere_windowed (ssRNA)
RNA: GGGAGUUCUACAGUCCGACGAUCUUCUCAGUGUGUGUGUUUAUUCCUUAUAGGUGUAAAUGAGAAGACGUGUUUUUUUCCUUCACCGAUGCUCCAUCCUCGUAUUUCUUUUUCCUUGUAAAUGUAAUCAGAUGCCAUUUUAUACAACAGAGGAUUGAGCAUCA
B6: chr16:58551611:58551719:-|CDS|ENSG00000125107|unk|FALSE|unique (ssRNA)
RNA: GGGAGUUCUACAGUCCGACGAUCCUGGCUCAGGCCCAGGCUCAGGCCCAGGUUCCAGCAAAAGCUCCUCUUGCUGGUCAAGUUAGCACUAUGGUAACCACCUCAACAACUACCACUGUUGCUAAAACGGUUACGGUCACCAGGCAACAGAGGAUUGAGCAUCA
B7: chr15:52755052:52757554:-|three_prime_utr|ENSG00000169856|control|control|control (ssRNA)
RNA: GGGAGUUCUACAGUCCGACGAUCAAACCUCGGUGGAAAAGCUUUAAAUUAAAAAAAAUUUUUAAAAGACCAGGACCUCAAGAUAGCAGGUUUAUACUUAGAAAUAUUUGAAGAAAAAAAAGCGUUAUUUAUAGUCCAAAGAAACAACAGAGGAUUGAGCAUCA
B8: ENSG00000107863:be:win_1501|CDS|ENSG00000107863|bound_else_gene|NA|bound_elsewhere_windowed (ssRNA)
RNA: GGGAGUUCUACAGUCCGACGAUCGGACAGGAUGAAACCUUAGAAAAUGUCAAUUCUGGAACUCCAAUACCUGAUUCCAAUGGAGAGAAAAAACAGACUUACAAGUGGAGUGGGUUUACUGAACAGGAUGAUAGACGAGGUAUUCAACAGAGGAUUGAGCAUCA
B9: chr11:69651811:69651939:+|3pUTR|ENSG00000110092|msi1_unk|FALSE|overlapping (ssRNA)
RNA: GGGAGUUCUACAGUCCGACGAUCUAAAGCACAGCUGUAGUGGGGUUCUAGGCAUCUCUGUACUUUGCUUGCUCAUAUGCAUGUAGUCACUUUAUAAGUCAUUGUAUGUUAUUAUAUUCCGUAGGUAGAUGUGUAACCUCUUCACAACAGAGGAUUGAGCAUCA
B10: chr1:26281289:26281390:+|3pUTR|ENSG00000142669|msi1_unk|FALSE|overlapping (ssRNA)
RNA: GGGAGUUCUACAGUCCGACGAUCUCCCUCCUCUCUAAAUGUAGUCCCCUCUCCUCCAUCUAAAGGCAACAUUCCUUACCCAUUAGUCUCAGAAAUUGUCUUAAGCAACAGCCCCAAAUGCUGGCUGCCCCCAGCCAAGCAUUGCAACAGAGGAUUGAGCAUCA
B11: ENSG00000184898:stop:overlap|stop_codon|ENSG00000184898|stop_codon|NA|stop_codon (ssRNA)
RNA: GGGAGUUCUACAGUCCGACGAUCGGCUGUUAGGGCUUAACUGUUGUCCUCCCACGCCUCGGGGGGAACAAAAGUGGCCUGAUUAGCCAGAAAUGGAGGUCACAGCUGCCUUUUGAAAAGGGCUAAUAAGAACGAUUCGAGCCACAACAGAGGAUUGAGCAUCA
B12: chr4:189940876:189940977:+|5pUTR|ENSG00000109536|unk|FALSE|unique (ssRNA)
RNA: GGGAGUUCUACAGUCCGACGAUCAGUGGAACUCUGAGCCAUUCAGCGUUUGGGUGAAGACGGAGGCGGGUUCUACAGAGACGUAGGCUGUCAGGGAGUGUUUAUUUCGCGUCCGCUUCUGUUUCUCCGCGCCCCUGUGCUGCCCAACAGAGGAUUGAGCAUCA
B13: chr5:177457090:177457109:-|3pUTR|ENSG00000113758|msi1_unk|FALSE|overlapping (ssRNA)
RNA: GGGAGUUCUACAGUCCGACGAUCGGUAGUUGAGACGCUGUUGCAAAUUCCACCCCUCCUUCCCUGGUCCAGAUUGUAGCUCUUAGUCCUCCCUGCUCAGCUGGCCGGGUUGGAGGCCUCACCCUGCUUGGGGCCUGGCGUGGGCAACAGAGGAUUGAGCAUCA
B14: chr19:2853326:2853433:+|CDS|ENSG00000186300|unk|FALSE|unique (ssRNA)
RNA: GGGAGUUCUACAGUCCGACGAUCCAAUGUGGGAAAACUUUCAAUUGGCCCAUAUCUUUACGAAAACAUAUGAGAACACAUACUAGAGAGAAACCCUAUGAAUGUAAGCAGUGUGGGAAAGCCUUCAGCUUGUCUGCUUGCUUUCAACAGAGGAUUGAGCAUCA
B15: chr6:152987361:152990084:-|three_prime_utr|ENSG00000112031|control|control|control (ssRNA)
RNA: GGGAGUUCUACAGUCCGACGAUCAGAUUAUCUACUGGAUGAACUUGUACAGUCAUUGAAGGAAUACGCCGAUUAUGAAUCUUUAGUAGAAAUUAUUUCCCAAAAAGUUUAAGUUGAUUUGUUAUUUAUAGACUUUCGUAGCUUCAACAGAGGAUUGAGCAUCA
B16: ENSG00000135956:stop:overlap|stop_codon|ENSG00000135956|stop_codon|NA|stop_codon (ssRNA)
RNA: GGGAGUUCUACAGUCCGACGAUCUGAAAGACAGUGCUGCUCCUGCGGGUCAUCGCCGCCUUCUGUUUCCUGGGCAUCCUGUGUAGUCUCUCCGCUUUCCUUCUGGAUGUCUUUGGGCCGAAGCAUCCUGCUCUGAAGAUCACUCAACAGAGGAUUGAGCAUCA
B17: chr3:128622278:128622381:-|CDS|ENSG00000163902|unk|FALSE|unique (ssRNA)
RNA: GGGAGUUCUACAGUCCGACGAUCAGCCAGGAUGAAGGUAGCCUGCAUCACAGAGCAGGUCUUGACCCUGGUCAACAAGAGAAUAGGCCUUUACCGUCACUUUGACGAGACCGUCAAUAGGUACAAGCAAUCCCGGGACAUCUCCAACAGAGGAUUGAGCAUCA
B18: chr8:80499649:80499757:+|CDS|ENSG00000205189|unk|FALSE|unique (ssRNA)
RNA: GGGAGUUCUACAGUCCGACGAUCUAAGACUUUAUAUUGCUUUUCAAACAAAGAAAGCCCUAACCAAAACAAUACUACCCACUUAGAUAUUGCUGCAGUUCAAGGUUUUUCAGUCAUCUUGGACUUCUUGUAUUCUGGUAACCUCAACAGAGGAUUGAGCAUCA
B19: chr19:48922626:48922741:+|3pUTR|ENSG00000104805|msi1|FALSE|unique (ssRNA)
RNA: GGGAGUUCUACAGUCCGACGAUCUCCUCCGAGGGGCUUGCCUUCUCUCGUGUCCAGUGAGGUGCUCAGUGAUCGGCUUAACUUAGAGAAGCCCGCCCCCUCCCCUUCUCCGUCUGUCCCAAGAGGGUCUGCUCUGAGCCUGCGCAACAGAGGAUUGAGCAUCA
B20: ENSG00000154380:stop:overlap|stop_codon|ENSG00000154380|stop_codon|NA|stop_codon (ssRNA)
RNA: GGGAGUUCUACAGUCCGACGAUCAGCUAAAAGAAGAGCUCAUUGAUGCAAUCAGGCAGGAACUGAGCAAGUCAAAUACUGCAUAGAGGAACAGACUAAGGAGAGAUAGGACUUUAAUCUGGAGGAAAAAUAUCCUACAAACAACAACAGAGGAUUGAGCAUCA
B21: chr1:85021069:85021276:-|CDS|ENSG00000055732|control|control|control (ssRNA)
RNA: GGGAGUUCUACAGUCCGACGAUCGAUAUGUUUGCCACGUUUGCAAAAAUGCAGCAAAAAAGUUACUUAGUCUGGCUGUUUAGUAGAAUUUACCUCUACUCAUUCAUCAGCCUCUUUAUAUAUAUGAUUUUAAGUCUUUUCAUUCAACAGAGGAUUGAGCAUCA
B22: chr2:200490383:200490484:-|CDS|ENSG00000155729|msi1|FALSE|unique (ssRNA)
RNA: GGGAGUUCUACAGUCCGACGAUCUCUCCAGCCAGUGCCAUCCAGACGUCGGCUGGGGCGACAGCAAACCGGUUUCAAAGUGGUAGCCGCAGAAAGGCAGCUCAGCGCUCUGCACCUUCCAGAGCCACGGCCCUGGUGGGCACGCAACAGAGGAUUGAGCAUCA

Target: MSI1 full-length (mouse, UniProt Q61474 1-362)
Chain of UniProt Q61474 (Q61474 whole entry): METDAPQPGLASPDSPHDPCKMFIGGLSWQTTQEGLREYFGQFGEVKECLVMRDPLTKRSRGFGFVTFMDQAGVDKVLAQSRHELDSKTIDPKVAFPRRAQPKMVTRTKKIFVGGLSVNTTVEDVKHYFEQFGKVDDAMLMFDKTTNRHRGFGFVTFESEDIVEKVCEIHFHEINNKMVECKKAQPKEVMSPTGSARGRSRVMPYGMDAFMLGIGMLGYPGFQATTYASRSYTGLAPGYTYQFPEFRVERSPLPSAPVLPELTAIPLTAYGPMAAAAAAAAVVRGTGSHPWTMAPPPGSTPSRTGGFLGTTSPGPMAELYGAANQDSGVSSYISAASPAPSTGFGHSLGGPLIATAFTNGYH
Test: nsRBNS (natural sequence RNA bind-n-seq); RBNS binding buffer (assumed for nsRBNS): 25 mM Tris pH 7.5, 150 mM KCl, 3 mM MgCl2, 0.01% Triton X-100, 500 ug/ml BSA, 20 U/ml SUPERase-In, 4 C; UNK is unkempt and MSI1 is Musashi-1; names of the RNAs are library labels; protein concentration not given here; high values mean tight binding

Binder | binding signal [enrichment R]
B1 | 0.273
B2 | 0.649
B3 | 0.602
B4 | 0.375
B5 | 1.46
B6 | 0.314
B7 | 5.08
B8 | 0.889
B9 | 1.24
B10 | 3.75
B11 | 0.329
B12 | 0.585
B13 | 1
B14 | 0.43
B15 | 10.5
B16 | 0.337
B17 | 0.259
B18 | 0.722
B19 | 0.793
B20 | 1.16
B21 | 3.09
B22 | 0.345

Reference: article PMC12136788
